Laboratory results as given in article PMC7615710, “ASPP2 binds to hepatitis C virus NS5A protein via an SH3 domain/PxxP motif-mediated interaction and potentiates infection” (The Journal of general virology, 2023).

Molecular target: T1, HCV [1a.1] NS5A PRR peptide (Hepatitis C virus genotype 1a (strain 1))
T1 construct: source: synthetic peptide, custom made (TUCF)
Test: ITC; 450 or 300 uM NS5A PRR peptide (syringe) titrated to 30 uM ASPP CTD or SH3 domain (cell), 12 °C, 25 mM HEPES pH 7.5, 150 mM NaCl, 500 uM TCEP; 25 steps of 10 ul; AB hetero association model (SEDPHAT)
Details: both partners purified

B1: Abl1 SH3 domain ([…]) (domain or fragment)
chain: not shown
In the case of B1, the Kd is reported as 49.9 µM.
